Certain results were filed several times, with different values. The other results are left out here. An entry can have further records. Values that stand side by side read as repeated measurements on other runs, samples or individuals.
What was measured:
[1] = target: human FGF R3 (IIIc) Fc chimera (R&D systems, 766-FR) (human) (UniProt P22607); assay: indirect ELISA, hu8C4 at 1.200 nM
[2] = target: human FGF R3 (IIIc) Fc chimera (R&D systems, 766-FR) (human) (UniProt P22607); assay: indirect ELISA, hu8C4 at 6.000 nM
[3] = target: human FGF R3 (IIIc) Fc chimera (R&D systems, 766-FR) (human) (UniProt P22607); assay: indirect ELISA, hu8C4 at 0.240 nM

A450 nm-A570 nm (A450 nm-A570 nm) [1]: 0 and 0.01 [columns of one line] | A450 nm-A570 nm (A450 nm-A570 nm) [2]: 0 and 0.01 [columns of one line] | A450 nm-A570 nm (A450 nm-A570 nm) [3]: -0.01 and 0 [columns of one line]
B1: hu8C4 (IgG1 humanized antibody having a hinge region of SEQ ID NO: 38 in hu8C4-1) (antibody, V domains shown)
VH: EVQLVESGGGLVQPGGSLRLSCAASGYTFSDYYINWVRQAPGKGLEWIGEIFPGSGNTHFSARFKGRATLSADKSKNTAYLQMNSLRAEDTAVYYCAGGDYGFLYWGQGTLVTVSS
VL: DIQMTQSPSSLSASVGDRVTITCGASENIYGALNWYQQKPGKAPKLLIYGATNLADGVPSRFSGSGSGRDFTFTISSLQPEDIATYYCQNVLSSPYTFGQGTKVEIK

— US20200231681A1
